Results as given in paper PMC4336329 (PLoS ONE, 2015).
Screen size: about 310,000 compounds; about 14,000 (4.5%) showed an effect of 50% or more. Effects have a minus sign here. Some of the results follow.

Target: human ether-à-go-go-related gene (hERG) potassium channel (human, UniProt Q12809)
Assay: primary screen, population patch clamp on CHO cells stably expressing hERG
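Note: peak tail current of the secondary pulse compared with the same well before compound.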

human ether-à-go-go-related gene (hERG) potassium channel, sequence (Q12809 whole entry, looked up): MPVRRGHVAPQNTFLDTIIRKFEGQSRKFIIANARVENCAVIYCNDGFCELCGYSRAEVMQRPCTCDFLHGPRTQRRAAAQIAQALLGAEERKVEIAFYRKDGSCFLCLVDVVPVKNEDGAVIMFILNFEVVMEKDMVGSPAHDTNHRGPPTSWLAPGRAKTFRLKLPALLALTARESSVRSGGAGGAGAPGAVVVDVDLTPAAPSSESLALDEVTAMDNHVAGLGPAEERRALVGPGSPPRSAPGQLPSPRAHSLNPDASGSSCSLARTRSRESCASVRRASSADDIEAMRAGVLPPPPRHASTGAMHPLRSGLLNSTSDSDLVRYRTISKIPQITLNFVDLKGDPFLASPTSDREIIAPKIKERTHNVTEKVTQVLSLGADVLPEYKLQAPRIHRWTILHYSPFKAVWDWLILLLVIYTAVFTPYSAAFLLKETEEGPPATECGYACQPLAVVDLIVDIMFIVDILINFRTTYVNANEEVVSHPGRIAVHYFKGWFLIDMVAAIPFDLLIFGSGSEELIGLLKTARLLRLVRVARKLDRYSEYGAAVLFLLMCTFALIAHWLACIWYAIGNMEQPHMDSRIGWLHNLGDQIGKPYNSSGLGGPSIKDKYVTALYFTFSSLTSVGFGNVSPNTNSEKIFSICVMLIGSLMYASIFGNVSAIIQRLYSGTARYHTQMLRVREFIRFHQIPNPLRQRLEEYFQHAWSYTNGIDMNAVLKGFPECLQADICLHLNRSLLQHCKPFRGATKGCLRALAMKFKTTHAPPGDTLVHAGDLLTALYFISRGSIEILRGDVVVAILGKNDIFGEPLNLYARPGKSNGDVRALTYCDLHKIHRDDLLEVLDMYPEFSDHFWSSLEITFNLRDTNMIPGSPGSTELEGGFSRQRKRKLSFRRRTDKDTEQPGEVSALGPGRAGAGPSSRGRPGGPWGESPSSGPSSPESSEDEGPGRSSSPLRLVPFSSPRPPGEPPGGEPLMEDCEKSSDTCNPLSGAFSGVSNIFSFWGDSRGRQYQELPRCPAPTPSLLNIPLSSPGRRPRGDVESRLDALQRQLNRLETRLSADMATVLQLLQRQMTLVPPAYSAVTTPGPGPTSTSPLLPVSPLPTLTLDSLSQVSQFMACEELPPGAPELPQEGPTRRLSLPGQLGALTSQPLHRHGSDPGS

Compound	hERG current change (%, negative = inhibition) at 10uM [%]
CC1CCCC(N2CCN(C(=O)c3cccc(F)c3)CC2)C1.O=C(O)C(=O)O (stereo not shown)	-6.93
COc1ccccc1/C=C(/C(=O)OCC(=O)Nc1ccc(N(C)C)cc1)c1ccccc1	-0.0196
Cc1cc(NC(=O)c2cc(-c3ccccc3)on2)no1	11.4
Cc1c(C(=O)N(C)C)sc2nc(-c3ccccn3)[nH]c(=O)c12	-2.71
O=C1CCC(c2ccccc2)(c2ccccc2)CC1	6.52
COC(=O)Cc1c(C)c2ccc(OCC(=O)N3CCCC3)c(C)c2oc1=O	-15.2
NS(=O)(=O)c1ccc(CCNC(c2ccccc2)c2ccccc2)cc1	-24.8
COc1cccc(Nc2nnc(SCC(=O)N(CC(C)C)CC(C)C)s2)c1	5.89
O=C(Cc1ccc(-c2ccccc2)cc1)Nc1ncccc1O	3.3
Cc1ccccc1NC(=O)c1cc(S(=O)(=O)N2CCOCC2)cn1C	-8.81
CCN(CC)CCN(C(=O)c1cc2ccccc2cc1OC)c1nc2ccc(OC)cc2s1.Cl	-13.4
CC(=NCCN1CCOCC1)c1c(O)n(Cc2ccccc2)c(=O)[nH]c1=O	-30.1
COC(=O)C1CCN(CC(N)=O)CC1	-0.199
COc1ccc(CCNC(=O)CCCn2c(=O)c3cccn3c3cccnc32)c(OC)c1OC	-19.5
Cc1ccc(S(=O)(=O)NNC(=O)C2CCN(S(=O)(=O)c3ccc(C)cc3)CC2)cc1	-12.4
O=C1CN(C(=S)Nc2ccc(OC(F)F)cc2)CCN1	7.1
CCOc1cc(CNCc2cccs2)ccc1OCC(=O)NC(C)(C)C.Cl	-12.4
O=C(CN1CCN(C(=O)CN2C(=O)NC3(CCCC3)C2=O)CC1)Nc1cccc(F)c1	-2.85
CCN(CC)c1ccc(/C=N/N2CCN(c3ccccc3OC)CC2)cc1	14.4
CCc1ccc(C(=O)C(C)OC(=O)c2cccc(S(=O)(=O)N3CCOCC3)c2)cc1 (stereo not shown)	-12.5
Cc1ccc(Cn2c(NCCCn3ccnc3)nc3c2c(=O)n(C)c(=O)n3C)cc1	-30.1
Fc1cccc(NC(=S)N2CCN(c3ccccn3)CC2)c1	5.41
COc1ccc(NC(=O)CSc2nc(=O)n(CCN3CCOCC3)c3c2CCC3)c(OC)c1	-28.4
COc1ccc(C(=O)NNC(=O)c2ccncc2)cc1[N+](=O)[O-]	25.2
COCC(C)n1c(SCc2ccc(C(=O)OC)o2)nc2ccccc2c1=O (stereo not shown)	-8.61
O=C1CCCC(=O)C1C(c1ccc(Cl)cc1)C1C(=O)CCCC1=O	13.7
CC(C)(C)C#CC(CCc1ccccc1)OS(N)(=O)=O (stereo not shown)	7.66
Cc1ccc(C2=NC3(CCCCC3)N=C2SCC(=O)Nc2ccc3c(c2)OCCO3)cc1	11.6

Compound	hERG current change (%, negative = inhibition) at 10uM [%]
Cc1cc(NC(=O)c2ccc(S(=O)(=O)N3CCOCC3)cc2)nc2c1c(=O)oc1ccccc12	-16.9
CCC(C)NC(=O)c1ccc(CS(=O)(=O)c2ccc(OC)cc2)o1 (stereo not shown)	-2.75
COc1ccc(CC(=O)NCC(=O)N/N=C/c2c[nH]c3ccccc23)cc1	9.81
CCOc1cccc(C(=O)NC(c2ccccc2)C(C)C)c1 (stereo not shown)	10.4
O=C(Nc1cccc(-c2nc3ccccc3[nH]2)c1)c1ccccn1	-18.3
O=C(NCCc1ccccc1)c1ccc2c(c1)S(=O)(=O)N=C1CCCCCN12	4.12
O=C(NN=C1CCCCCC1)NC1CCCCC1	-9.86
O=C(NCC1CCCO1)c1ccc(COc2ccc(Cl)cc2)cc1 (stereo not shown)	-11.9
Cc1nnc2n1N=C(c1ccc3c(c1)NC(=O)CO3)CS2.Cl	-11.1
Cc1cc(C)c(C)c(S(=O)(=O)Nc2cccc(-n3cnnn3)c2)c1C	23.3
CCc1ccc(NC(=S)N(CCC(C)C)C2CCN(C(C)=O)CC2)cc1	-20.9
COc1cc(OC)c(OC)cc1CNCCNC(=O)c1ccco1	18.2
COc1ccc(COC(=O)c2ccc(S(=O)(=O)N3CCCCC3)cc2)cc1OC	11
C=CCNC(=O)c1oc2ccc(S(=O)(=O)N3CCCCC3)cc2c1C	-0.838
CC(C)NC(=O)c1ccc(COc2ccc(C(C)(C)C)cc2)o1	11.7
Cc1ccc(S(=O)(=O)Cn2cnnn2)cc1	7.14
O=C(CCC1N=C2c3ccccc3N=C(SCC(=O)NCC3CCCO3)N2C1=O)NCc1ccc(F)cc1 (stereo not shown)	2.89
C=CCn1c(SCC(=O)NCCc2ccccc2)nnc1C(C)NC(=O)c1cccs1 (stereo not shown)	-9.52
O=C(N/N=C/c1ccc(O)cc1)/C(=C/c1ccc([N+](=O)[O-])cc1)NC(=O)c1ccccc1	8.54
COc1ccc(-c2nnc3ccc(SCC(=O)Nc4nccs4)nn23)cc1OC	-3.17
Cc1nnc2c(N(C)S(=O)(=O)c3ccccc3)nc3ccccc3n12	-0.049
O=C(O)c1ccccc1C(=O)Nc1ccccc1[N+](=O)[O-]	6.88
CCCc1[nH]nc2c1C1(C(=O)N(CC(N)=O)c3ccccc31)C(C(=O)OC)=C(N)O2 (stereo not shown)	7.26
CCC(=O)N1CCc2cc(S(=O)(=O)CCC(=O)NCCc3ccc(OC)c(OC)c3)ccc21	-0.229
COc1ccccc1NS(=O)(=O)c1cc(NC(=O)c2ccncc2)ccc1N1CCCC1	69.9
Oc1[nH]c2ccccc2c1C=Nc1ccccc1	-9.66
COC(=O)c1cc(C(=O)OCC(=O)c2ccc[nH]2)cc([N+](=O)[O-])c1	-11.5
